Publication PMC10668032
This is one part of the list. At the low end of the ranking, values are background and their order means little.

These sequences were tested against SIX1 homeodomain (reference allele) (UniProt Q15475) (assay: universal protein binding microarray). Conditions: Universal all-10-mer PBM (8x60K, AMADID 030236), 300 nM GST-tagged protein, Alexa Fluor 488 anti-GST; buffer, salt, pH and temperature not stated; high values mean tight binding; most listed sequences are background and not binding sites; double strand, one strand shown.

| Sequence | binding signal |
| --- | --- |
| ATACAGGC | 0.132 E-score |
| GCAAGAGA | -0.006 E-score |
| CGGTGGCA | -0.0665 E-score |
| CCTAACAG | -0.0959 E-score |
| GCAACTTA | -0.209 E-score |
| AGCGTTCA | -0.326 E-score |
| CACACGCG | 0.0907 E-score |
| ATTACATA | 0.153 E-score |
| AATCTACG | -0.0521 E-score |
| ATAATACA | 0.302 E-score |
| AATATATT | 0.0272 E-score |
| ATGTTGAC | -0.0159 E-score |
| AGCCTATA | 0.128 E-score |
| TGTCGAAA | 0.0107 E-score |
| CTTGCCCA | -0.0726 E-score |
| ACGAGAAG | -0.00441 E-score |
| TCGTATAA | 0.194 E-score |
| AATTCATC | -0.0054 E-score |
| GCCCTAAA | -0.32 E-score |
| AGAATCAG | 0.0701 E-score |
| CGCAGAAC | -0.146 E-score |
| CTCGTTCC | -0.00777 E-score |
| AGTTGCAT | 0.102 E-score |
| ATCGGGGA | 0.252 E-score |
| AGCTAGTC | -0.0486 E-score |

| Sequence | binding signal |
| --- | --- |
| CGATTGTC | -0.251 E-score |
| CCGCACGA | 0.0947 E-score |
| GCTCATAC | 0.0544 E-score |
| AGGGGTTG | 0.000395 E-score |
| TGCTAGAA | -0.17 E-score |
| AAGTATCT | 0.266 E-score |
| CATATTGG | 0.101 E-score |
| ATTCCGCG | 0.15 E-score |
| GTAGCCGA | -0.00837 E-score |
| AATTATTG | -0.251 E-score |
| GTATGTCA | -0.171 E-score |
| GGACACCC | 0.372 E-score |
| CTACAGAA | -0.155 E-score |
| CAAAAGGG | -0.0877 E-score |
| GACGTTGC | -0.245 E-score |
| AGCATAGG | -0.25 E-score |
| AACAAAAG | -0.128 E-score |
| GTATGTAA | -0.0256 E-score |
| CCTGATCA | 0.306 E-score |
| AACGAGCA | -0.282 E-score |
| CAATTAGC | -0.0527 E-score |
| TCGGGACA | -0.126 E-score |
| AACCCTCA | -0.00756 E-score |
| ACATTCAT | -0.189 E-score |
| TCATTAAA | 0.0616 E-score |

| Sequence | binding signal |
| --- | --- |
| CAGCGGAA | -0.242 E-score |
| ATCATTGA | 0.28 E-score |
| GACGGACC | -0.167 E-score |
| GAATTGTC | -0.247 E-score |
| GAGACTAA | -0.128 E-score |
| TAGAGTCA | -0.175 E-score |
| AGCGTATC | 0.411 E-score |
| GCACATGA | -0.0574 E-score |
| CCCTATTC | 0.123 E-score |
| CAATTTGA | -0.0895 E-score |
| AGTCGTGG | -0.111 E-score |
| GCTACCAA | -0.161 E-score |
| ACACCTAT | 0.26 E-score |
| GTAGCCAC | -0.0472 E-score |
| ATCTGGGG | 0.176 E-score |
| ACTCGAGG | -0.0991 E-score |
| AAACACAC | -0.0089 E-score |
| AACGTTCG | -0.203 E-score |
| ATGCCTAG | -0.0374 E-score |
| ATCGGACC | 0.229 E-score |
| CAAGAACA | -0.199 E-score |
| TCCGGCCA | -0.00656 E-score |
| CGTCGTAC | -0.192 E-score |
| CGGCCACG | -0.239 E-score |
| AGATGCTG | -0.124 E-score |

| Sequence | binding signal |
| --- | --- |
| AGGCACAA | -0.15 E-score |
| ACTGGGCT | -0.19 E-score |
| CACCACGC | -0.0173 E-score |
| CCGAACCC | 0.00892 E-score |
| GCCTGCAC | -0.148 E-score |
| AACGGGAG | -0.0232 E-score |
| AATCCCAC | 0.158 E-score |
| AAGCTACG | -0.178 E-score |
| CTTCACTA | 0.0415 E-score |
| GTGTACTA | 0.0362 E-score |
| ACGGAAGG | -0.0293 E-score |
| ACATACAG | 0.11 E-score |
| CGCATTTC | -0.18 E-score |
| TTATTAAA | -0.125 E-score |
| CAACGTGC | -0.157 E-score |
| CCAAAACA | -0.0551 E-score |
| GGAACCCC | 0.00272 E-score |
| AGGATTCC | -0.0219 E-score |
| ATTCAGCG | -0.18 E-score |
| CATAGCGC | -0.0875 E-score |
| AGGTGTCA | 0.452 E-score |
| GATGTTCA | -0.0929 E-score |
| CCATCAGA | 0.0179 E-score |
| GCCTTCAA | -0.164 E-score |
| CGTTTACA | -0.0482 E-score |

| Sequence | binding signal |
| --- | --- |
| AATATTCA | 0.0039 E-score |
| AGGTACGG | 0.0449 E-score |
| AATTAGCT | -0.208 E-score |
| ATTGTGCC | -0.107 E-score |
| AATCGTTA | 0.0756 E-score |
| GTCTATGA | 0.0257 E-score |
| GTAGTCTA | 0.0273 E-score |
| AAGACAGG | -0.166 E-score |
| AAATGCCT | -0.0413 E-score |
| ACTAGGCA | -0.256 E-score |
| CACACGAG | -0.0542 E-score |
| GCGCCCGC | -0.139 E-score |
| ATTACACG | 0.0504 E-score |
| TGAAAAAA | -0.114 E-score |
| GAAGCATA | -0.0666 E-score |
| AGGGAAAA | -0.292 E-score |
| CCCGCACG | -0.0165 E-score |
| TACATGGA | 0.0595 E-score |
| CCCTGAAC | 0.0887 E-score |
| ACCGCTCG | -0.0716 E-score |
| CCGGTGAA | -0.06 E-score |
| CAATTTGC | -0.274 E-score |
| GAGTTTGC | -0.24 E-score |
| ACTCCGTA | -0.188 E-score |
| AAATATTT | -0.298 E-score |

| Sequence | binding signal |
| --- | --- |
| ACAGCCGT | -0.0851 E-score |
| CCCACGCC | 0.0266 E-score |
| ATTGCGTC | 0.103 E-score |
| CGAATAGA | -0.013 E-score |
| CATGACAA | -0.0593 E-score |
| AGTCAGAG | -0.108 E-score |
| AAACAGGG | -0.187 E-score |
| CAACGGCC | -0.184 E-score |
| AATCGATG | 0.0645 E-score |
| GACGTACA | -0.261 E-score |
| CGGGCTCA | 0.2 E-score |
| ACACTGGA | 0.0621 E-score |
| AACCGGAA | -0.121 E-score |
| TCCAAAGA | -0.0955 E-score |
| CAGATGAA | -0.154 E-score |
| GGTATGAC | 0.0985 E-score |
| ATGAACCG | -0.0565 E-score |
| ATATACGC | 0.244 E-score |
| GATAAATC | 0.0669 E-score |
| GCATATCA | 0.449 E-score |
| AAACGCGG | -0.0723 E-score |
| CCTAAGCG | -0.0557 E-score |
| GATAGTCA | 0.189 E-score |
| CGAGAGGC | -0.244 E-score |
| CTCCAAAG | -0.137 E-score |

| Sequence | binding signal |
| --- | --- |
| AAGTGGGG | 0.0277 E-score |
| AGGCAGTG | -0.0501 E-score |
| CAGCAGTC | -0.196 E-score |
| CAGAATTA | -0.13 E-score |
| GCAGGGAC | -0.274 E-score |
| TGTGTAAA | -0.0643 E-score |
| CTTCGTTC | -0.263 E-score |
| GCGCGAGC | -0.174 E-score |
| GTAGTTCA | -0.182 E-score |
| GAGACCGC | -0.063 E-score |
| ACTGCCTG | -0.0571 E-score |
| CAGTCCTA | -0.047 E-score |
| ATGTCTAG | -0.0916 E-score |
| CTGGGCCC | -0.151 E-score |
| CCAGTTAG | -0.0757 E-score |
| AAGCCGGG | 0.0364 E-score |
| CCTAAACC | -0.01 E-score |
| ACTACAAA | 0.0539 E-score |
| GTTAGACA | 0.0126 E-score |
| ATGAGAGA | 0.0474 E-score |
| CCGGTCAC | -0.0592 E-score |
| AAAAGCTG | -0.233 E-score |
